The whole screen tested about 340,000 compounds, of which about 12,000 (3.5%) were called active. Inconclusive results, whose numbers are uncertain, are shown with a selection of clear calls. Calls come from the whole dose curve; as a rule, active = well fitted inhibition curve with a large enough effect; inconclusive = small, poorly fitted or top-dose-only effect, or another doubt; inactive = no such curve, though single readings can be large or run the other way. Potencies of inconclusive entries are left out as doubtful fits.
assay: qHTS Assay for Inhibitors of Hepatitis C Virus (HCV); conditions: Huh7.5.1 HCVcc-Cre (HCVcc is cell-culture hepatitis C virus) infection, luciferase reporter, 44 h; series mostly up to 41.8 µM
Outline: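 Infectious HCV cell culture screen: compound-treated cells (1,000/well, pre-plated 4 h) are infected with HCVcc-Cre at roughly 0.5 moi and grown 44 h. Infection is quantified by luciferase signal after 15 min substrate incubation at room temperature.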
Potency is the fitted concentration of half-maximal effect; tags give direction and shape of the fitted curve.

SMILES	Potency
CCc1cc2c(cc3c(=O)n(CC(=O)N4CCN(c5ccccn5)CC4)nc(CC)n32)s1	active: 7.94 µM
COc1ccc(NC(=O)Cn2nnc(-c3ccccc3N)n2)cc1OC	inconclusive [inhibitor, single point]
COCC(=O)N1CCC(n2nnc3cc(C(F)(F)F)ccc32)CC1	inactive
CCN(CC)S(=O)(=O)c1ccc2c(c1)nc(SCC(=O)N1CCOCC1)n2-c1ccccc1OC	inactive
COc1ccc(C(C(=O)NC2CCCCC2)N(C(=O)c2ccco2)c2ccccc2C(C)=O)cc1OC (configuration not stated)	inactive
CC(=O)c1ccc(NC(=O)c2ccc3c(Cl)c4c(nc3c2)CCCC4)cc1	inconclusive [inhibitor, partial curve]
O=C(Nc1cccc2oc(=O)ccc12)c1ccc([N+](=O)[O-])cc1[N+](=O)[O-]	inconclusive [inhibitor, single point]
COC(=O)c1sc2nc(SCc3cccc(Cl)c3)n(N)c(=O)c2c1C	inconclusive [inhibitor, single point]
CCN(CC)S(=O)(=O)c1cc(C(=O)Nc2cc(C)on2)c(Cl)cc1Cl	inconclusive [inhibitor, partial curve]
COc1ccc(/C(O)=C/Sc2nnc(Cc3ccccc3)o2)cc1	inconclusive [inhibitor, partial curve]
Cc1cccc(OCC(=O)OCC(=O)c2c(N)n(C)c(=O)n(C)c2=O)c1C	inconclusive [inhibitor, partial curve, poor fit]
O=C(CCc1nnc(Cc2ccc3c(c2)OCO3)o1)NCCc1ccccc1Cl	inconclusive [inhibitor, single point]
Cc1ccc2c(c1)C(c1ccccc1)N(C(=O)CC(C)C)CC(=O)N2 (configuration not stated)	inactive
O=C(Nc1ccc2snnc2c1)N1CCN(c2ccccc2)CC1	inconclusive [inhibitor, single point]
O=C(NCC1CCCO1)c1ccc2c(=O)n(Cc3ccco3)c(SCC(=O)N3CCCC3)nc2c1 (configuration not stated)	inconclusive [inhibitor, partial curve]
COc1ccc(C(=O)N2CCN(c3cccc(C)c3C)CC2)cc1S(=O)(=O)NC1CC1	inconclusive [inhibitor, single point]
CCCCOc1ccc(CSCCN)cc1Cl	inconclusive [inhibitor, partial curve]
CCC(N)Cc1c[nH]c2ccccc12 (configuration not stated)	inactive
Cc1cccc(OCc2nnc(SCC(=O)NC3CCCC3)n2C)c1	inactive
CCOC(=O)CSc1cc(-c2ccccc2)nc2ncnn12	inactive
CC1(C)C[C@H]2C3=CCC4[C@@]5(C)CC[C@H](O)[C@](C)(CO)C5CC[C@@]4(C)[C@]3(C)C[C@H]3O[C@@H]1[C@H](O)[C@]32CO (some centres not stated)	inactive
Cc1ccc(C(=O)N(C)Cc2ccc(N3CCOCC3)cc2)cc1S(=O)(=O)NCc1ccccc1	inconclusive [inhibitor, single point]
Cc1cc(N)n2ncc(-c3ccccc3)c2n1	inconclusive [inhibitor, partial curve]
Cn1c2ccccc2c2cnn(CC(=O)NCCCN3CCN(c4ccccc4F)CC3)c(=O)c21	active: 10 µM

SMILES	Potency
CC(=O)c1ccc(N2CCN(C(=O)Nc3ccc(C(C)C)cc3)CC2)cc1	active: 3.16 µM
O=C(c1ccc(Cl)c(Cl)c1)N1CCC(=O)N(C(COCc2ccc(Cl)cc2)Cc2ccccc2)CC1 (configuration not stated)	inconclusive [inhibitor, single point]
Cc1ccc(-c2csc(NC(=S)NC(=O)/C=C/c3ccco3)n2)cc1	active: 12.6 µM
CC(=O)Nc1ccccc1N(CC(O)Cn1c2ccccc2c2ccccc21)S(=O)(=O)c1ccc(C)cc1 (configuration not stated)	active: 11.2 µM
COc1ccc(NC(=O)c2ccco2)cc1NC(=O)c1c(OC)cccc1OC	inactive
O=C(Nc1ccccc1)N1CCn2c1nc1ccccc12	inconclusive [inhibitor, single point]
C=CCN(c1ccccc1)S(=O)(=O)c1cccc(C(=O)NCc2ccncc2)c1	inconclusive [inhibitor, single point]
COc1ccc(NC(=O)c2nc[nH]c2C(=O)N[C@H](C)c2ccccc2)cc1	inconclusive [inhibitor, single point]
CNc1ccc(Br)cc(C(=O)/C=C/c2cccc(OC)c2OC)c1=O	inconclusive [inhibitor, partial curve]
Cn1c(SCC(=O)NC(c2ccccc2)c2ccccc2)nnc1-c1cccs1	inactive
CCN(CC)c1ccc(/C=N/NC(=S)NCc2ccco2)cc1	inconclusive [inhibitor, single point]
O=C(COc1ccc(-n2cnnn2)cc1)Nc1ccc(F)c(Cl)c1	inconclusive [inhibitor, single point]
CC(=O)Nc1ccc(C(=O)OCc2ccc(Br)cc2)cc1	inactive
Cc1cc(NC(=O)COC(=O)c2n[nH]c3ccccc23)no1	inactive
COc1ccccc1CN1CCN(Cc2nc(Cc3ccccc3)no2)CC1	inactive
Cc1cc2ncn(-c3ncnc4sc5c(c34)CCCC5)c2cc1C	inactive
Cc1cc(N/C=C2\CCCCC2=O)no1	inactive
CCOc1ccc(C(C(=O)NCC2CCCO2)N(C(=O)c2snc(C(N)=O)c2N)c2ccccc2F)cc1 (configuration not stated)	inconclusive [inhibitor, single point]
CC1(C)Cc2nc3sc4c(=O)n(CC(=O)NCc5ccccc5)cnc4c3cc2CO1	inconclusive [inhibitor, single point]
CC1CN(S(=O)(=O)c2ccc(C(=O)Nc3nnc(-c4ccco4)o3)cc2)CC(C)O1 (configuration not stated)	inactive
O=C(NC1CCCCC1)c1cc(-n2cnnc2)ccc1Cl	inactive
CCCCNC(=O)c1oc2ccc(S(=O)(=O)N3CCCC3)cc2c1C	inactive
COc1ccc(Oc2ncc(CN3CCN(c4ccccc4)CC3)s2)cc1	inactive

Source: PubChem BioAssay AID651820 (National Center for Advancing Translational Sciences (NCATS), 2012)
